Laboratory results from the supplement of paper PMC8728848.
Some of the results follow.

Legend:
Assay in all cases: glycan array binding signal (z-score within array); higher = stronger binding
Conditions in all cases: glycan notation: IUPAC condensed, linker removed
[1] = molecular target: Neu5Ac(b2-6)Gal(b1-4)GlcNAc
How it was run: (§1)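 Negative Z-scores can be read as non-binding. The Z-score is calculated within each array and then averaged across arrays of one protein sequence at different concentrations or buffers and across linkers. Arrays, 3228 in all, were curated from the Consortium for Functional Glycomics database and kept only where the protein sequence was available.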

Neu5Ac(b2-6)GalNAc = molecular target: Neu5Ac(b2-6)GalNAc
How it was run: as §1

[2] = molecular target: Neu5Ac9Ac(a2-3)Gal(b1-3)GlcNAc
How it was run: as §1

[3] = molecular target: Neu5Ac9Ac(a2-3)Gal(b1-4)GlcNAc
How it was run: as §1

[4] = molecular target: Neu5Ac9Ac(a2-6)Gal(b1-4)GlcNAc
How it was run: as §1

[5] = molecular target: Neu5Gc(a2-3)Gal(b1-3)GlcNAc
How it was run: as §1

[6] = molecular target: Neu5Gc(a2-3)Gal(b1-3)[Fuc(a1-4)]GlcNAc
How it was run: as §1

Neu5Gc(a2-3)Gal(b1-4)Glc = molecular target: Neu5Gc(a2-3)Gal(b1-4)Glc
How it was run: as §1

[7] = molecular target: Neu5Gc(a2-3)Gal(b1-4)GlcNAc
How it was run: as §1

[8] = molecular target: Neu5Gc(a2-3)Gal(b1-4)[Fuc(a1-3)]GlcNAc
How it was run: as §1

[9] = molecular target: Neu5Gc(a2-6)Gal(b1-4)GlcNAc
How it was run: as §1

Neu5Gc(a2-6)GalNAc = molecular target: Neu5Gc(a2-6)GalNAc
How it was run: as §1

[10] = molecular target: Neu5Gc(b2-6)Gal(b1-4)GlcNAc
How it was run: as §1

B1: UEA-I (Ulex europaeus), P22972 (protein)
chain: SDDLSFKFKNFSQNGKDLSFQGDASVIETGVLQLNKVGNNLPDETGGIARYIAPIHIWNCNTGEVASFITSFSFFMETSANPKAATDGLTFFLAPPDSPLRRAGGYFGLFEDTKDNDSSYQTVAVEFDTIGSPVNFDDPGFPHIGIDVNRVKSINAERWNKRYGLNNVANVEIIYEASSKTLTASLTYPSDQTSISVTSIVDLKEILPEWVSVGFSGGTYIGRQATHEVLNWYFTSNLIN
glycan array binding signal (z-score) [1]: -0.183
glycan array binding signal (z-score) (Neu5Ac(b2-6)GalNAc): -0.179
glycan array binding signal (z-score) [2]: -0.182
glycan array binding signal (z-score) [3]: -0.181
glycan array binding signal (z-score) [4]: -0.181
glycan array binding signal (z-score) [5]: -0.182
glycan array binding signal (z-score) [6]: -0.186
glycan array binding signal (z-score) (Neu5Gc(a2-3)Gal(b1-4)Glc): -0.187
glycan array binding signal (z-score) [7]: -0.18
glycan array binding signal (z-score) [8]: -0.182
glycan array binding signal (z-score) [9]: -0.18
glycan array binding signal (z-score) (Neu5Gc(a2-6)GalNAc): -0.178
glycan array binding signal (z-score) [10]: -0.186
